The inconclusive results got no clear call from the source; some entries with a clear call stand among them for comparison. The source made the active and inactive calls. Calls follow the shape of the dose curve; as a rule, active = well fitted curve in either direction with a large enough effect (not every such curve was filed as active); inconclusive = small, poorly fitted or top-dose-only effect, or another doubt; inactive = flat fitted curve, though single readings scatter.
Assay: NFAT Signaling Pathway (AID 444);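 also: carbachol stimulus at about its EC50 of 1 µM final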
Details: Jurkat NFAT-bla M1, carbachol, beta-lactamase ratio, 5 h; at 17.2 µM (top of the series) unless noted
Procedure, shortened: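 Jurkat cells with NFAT-driven β-lactamase reporter and co-expressed M1 receptor, stimulated with carbachol (final 1 uM, ~EC50), compound titration, 5 h at 37 °C. CCF4 loaded 1 h at RT; 460/530 nm ratio gave %activity and AC50.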
% is scaled to controls: 0 for no effect and ±100 for the full control effect.

SMILES | activity change, negative = inhibition
N#CC[N+]1(Cc2ccccn2)CCCC1 | inactive: 0.385% [at 7.69 µM]
C[C@@H](SCc1ccccc1)C(=O)O | inactive: 12.1% [at 7.69 µM]
CCCCc1nc(N2CCOCC2)c(C#N)c2c1COC(C)(C)C2 | inactive: 16.6%
CC(C)(C)CNCCO | inactive: 4.1% [at 7.69 µM]
O=S(=O)(c1ccc(Cl)cc1)N1CCC(N2CCCCCC2)CC1 | inconclusive: -78.1% [inhibitor]
O=C(CN1C(=O)c2ccccc2S1(=O)=O)c1ccccc1 | inactive: -11.7%
CN(C)Cc1ccccc1-c1cncnc1NC1CC1 | inconclusive: -73.4% [inhibitor] [at 7.69 µM]
OC[C@@H]1O[C@@H](O)[C@H](N=Cc2ccc3c(c2)OCO3)[C@@H](O)[C@@H]1O | inactive: 3.26% [at 7.69 µM]
Cc1cccc(N(CC(O)CN(C)C)S(=O)(=O)c2ccccc2)c1 (stereo not given) | inactive: -3.01%
CCOC(=O)c1c(NC(=O)CCN2CCOCC2)sc2c1CC(C)(C)OC2 | inconclusive: 11.4% [activator]
CCOC(=O)C1CCN(c2nc3ccccc3nc2C(C#N)C(=O)OCCOC)CC1 (stereo not given) | inconclusive: -30.1% [inhibitor]
CCO/C(C)=N/n1c2nc3ccccc3nc2c2c(=O)n(CC(C)C)c(C)nc21 | inactive: 12.6%
C=CCOc1ccc(C2/C(=C(\O)c3ccc(F)cc3)C(=O)C(=O)N2CCCN(C)C)cc1 (stereo not given) | inactive: -5.15%
COc1ccc(C(=O)N2CCC3(CCCN(c4ccccc4)C3)CC2)cc1 | inconclusive: -30.4% [inhibitor] [at 7.69 µM]
CCOc1cccc(-c2nnc3sc(-c4ccc(C)cc4)nn23)c1 | inactive: -19.6%
CC(C)c1nc2n[nH]c(N)c2c2c1CCCC2 | inactive: 6.42%
O=C(O)C(=Cc1ccc(-c2ccccc2)cc1)C(=O)O | inconclusive: -35% [inhibitor] [at 7.69 µM]
COc1ccccc1CN1CCCC2(CCN(C(=O)c3c(C)noc3C)CC2)C1 | inconclusive: -68.7% [inhibitor] [at 7.69 µM]
Nc1nnnn1/N=C/c1cccs1 | inactive: -9.98%
COCCNc1oc(-c2ccc(F)cc2)nc1C#N | inactive: 7.25%

SMILES | activity change, negative = inhibition
O=C(OCCCN1CCCC1)C1(c2ccccc2)CCCC1 | active: -82.8%
CCOc1ccc(C2C(C#N)=C(N)Oc3cc(C)n(CCN4CCOCC4)c(=O)c32)cc1OCC (stereo not given) | inactive: 7.01%
CCOC(=O)C1=C(N)c2ccccc2CC1C(C)C (stereo not given) | inconclusive: -59% [inhibitor]
CN(C)CCCO[C@H]1[C@@H]2OC(C)(C)O[C@@H]2O[C@@H]1[C@H](O)CO | inactive: -2.11%
Cc1ccccc1N1C(=O)C2ON(c3ccccc3)C(c3cccnc3)C2C1=O (stereo not given) | inactive: -0.971%
O=C(c1csnn1)N1CCC2(CC1)CN(c1ncccn1)C2 | inactive: 16.9% [at 7.69 µM]
COc1ccc(/C(O)=C2\C(=O)C(=O)N(CCN(C)C)C2c2cccc(OC)c2OC)cc1Cl (stereo not given) | inactive: 11.9%
O=C(O)C[C@H](NC(=O)CP(=O)(O)O)C(=O)O.[NH-][C@@H]1CCCC[C@@H]1[NH-].[Pt] | inconclusive: -31.8% [inhibitor] [at 7.69 µM]
CNC(=O)CC(C(=O)O)c1ccc(OC(C)C)cc1 (stereo not given) | inconclusive: 2% [activator]
O=c1c(-c2ccc(F)cc2)nc2cnc(Nc3ccccc3)nc2n1C1CC1 | inactive: -2.3% [at 7.69 µM]
CN1CCc2c(c3c(n2C)CCN(C)[C@@H]3c2cccnc2)[C@H]1c1cccnc1 | inactive: 8.24%
CC(C)(C)c1cccc(/C=N/O)c1O | inconclusive: -41.5% [inhibitor]
Nc1nc2n(n1)C(c1cccs1)CC(c1ccc(F)cc1)N2 (stereo not given) | inconclusive: 0.831% [activator]
Cc1nnc2n(-c3ccccc3)c(=O)c3c4c(sc3n12)COC(C(C)C)C4 (stereo not given) | inactive: -28.2%
CNc1ncnc(Sc2nc(N)nc3nc[nH]c23)c1[N+](=O)[O-] | inconclusive: -65.4% [inhibitor] [at 7.69 µM]
CC(=O)O[C@H]1C[C@H]2CC[C@@H]3[C@@H](CC[C@]4(C)[C@H](OC(C)=O)[C@H]([N+]5(C)CCCCC5)C[C@@H]34)[C@]2(C)C[C@H]1[N+]1(C)CCCCC1 | inconclusive: -52.2% [inhibitor]
O=C(O)C[C@H](S)C(=O)O | inconclusive: -38.5% [inhibitor] [at 7.69 µM]
COc1ccccc1CN1CC2(CCN(S(C)(=O)=O)CC2)C1 | inactive: -7.23% [at 7.69 µM]
C[N@@+]1(CC[N@@+]2(C)CCC[C@H]2c2cccnc2)CCC[C@@H]1c1cccnc1 | inactive: -16.4% [at 7.69 µM]
CCOC(=O)C(C)Sc1nc(-c2cccs2)ccc1C#N (stereo not given) | inconclusive: -37.1% [inhibitor]
